# Results published in PubChem BioAssay AID1745845 (National Center for Advancing Translational Sciences (NCATS), 2022).
# The campaign covered roughly 360,000 compounds. About 2,600 (0.72%) were called active. The shares of active, inactive and inconclusive entries below differ from those in the screen. The call rests on the fitted dose curve; in most records, active means well fitted inhibition curve with a large enough effect; inconclusive means small, poorly fitted or top-dose-only effect; inactive means no such curve, though single readings can be large or run the other way. Potencies of inconclusive entries are doubtful fits and often do not repeat.
# Assay: Primary qHTS for Inhibitors of ATXN expression; further: nearly all actives have a fitted effect of over 55% in size
# Settings: HEK-293 ATXN2-luciferase reporter, luminescence, 24 h; activity change, negative = inhibition: at 57 µM (top of the series)
# Summary of the method: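 ATXN2-luciferase reporter cells (luciferase flanked by upstream and downstream ATXN2 gene portions) were treated 24 h at 37 °C with compounds at up to 57 uM. SteadyGlo luminescence gave expression; GF-AFC fluorescence gave viability.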
# On the % scale 0 is the no-effect control and ±100 the full control effect; potency means the concentration at half of the fitted maximal effect; tags describe the fitted curve by direction and shape.
SMILES,Potency,"activity change, negative = inhibition"
COc1ccc(OC)c(C(=O)CSc2nnc(Cc3cccs3)n2CCc2ccccc2)c1,"inconclusive: 39.8 µM [inhibitor, single point]",–
Cc1cc2c3c(c1)C1(C(=O)N3C(C)(C)CC2C)C(C#N)=C(N)Oc2cc(O)ccc21 (stereo not given),"inconclusive: 28.2 µM [inhibitor, single point]",–
Cc1cccc(OCC(=O)Nc2c(C)ccc3nsnc23)c1C,–,inactive: -17.1%
CCOc1ccc(OCC)c(NC(=O)CN2CCN(c3cccc(C)c3)C(C)C2)c1 (stereo not given),"inconclusive: 39.8 µM [inhibitor, partial curve, poor fit]",–
CCN(CC)CCN1C(=O)/C(=C\c2ccc(Cl)c([N+](=O)[O-])c2)SC1=Nc1ccc(OC)cc1,active: 31.6 µM,–
CCn1c(=O)oc2cc(NC(=O)CCl)ccc21,"inconclusive: 37.7 µM [inhibitor, single point]",–
CCOc1ccc(CCN2C(=S)N([C@@H](Cc3ccc(O)cc3)CN3CCCC3CN3C(=S)NC[C@@H]3Cc3ccc(O)cc3)C[C@@H]2CC(C)C)cc1 (stereo not given in full),"inconclusive: 28.2 µM [inhibitor, single point]",–
COc1cccc(-n2nc(C#N)c(Cl)cc2=O)c1,active: 22.4 µM,–
CC(C)[C@H](NS(=O)(=O)c1ccccc1)C(=O)OCC(=O)N1N=C(c2ccc(Cl)cc2)CC1c1ccco1 (stereo not given in full),–,inactive: -16.1%
Cc1cccc(-n2c(C)cc(C(=S)N3CCOCC3)c2C)c1C,–,inactive: -4.59%
CC(=O)NC1=C(Nc2ccc(N(C)C)cc2)C(=O)c2ccccc2C1=O,–,inactive: 12.6%
CCOc1ccccc1NC(=O)C1CCCN(C(=O)NCc2ccccc2)C1 (stereo not given),–,inactive: -3.9%
CN(C)c1ccc(/C=C/c2ccc3ccccc3[n+]2C)cc1,"inconclusive: 3.55 µM [inhibitor, full curve]",–
COc1ccccc1N1CCN(C(=O)c2sc3ncnc(N4CCN(c5ccccn5)CC4)c3c2C)CC1,–,inconclusive: -84.7% [inhibitor]
CC(C)Cn1c(O)c(/C=C2\C=NN=C2c2ccccc2)sc1=S,"inconclusive: 28.2 µM [inhibitor, single point]",–
Cc1ccc(C)c(-c2ccc(=O)n(Cc3cccc(Br)c3)n2)c1,–,inactive: -28.5%
CN(c1ccccc1)S(=O)(=O)c1cccc(NC(=O)c2ccc(Cl)c([N+](=O)[O-])c2)c1,"inconclusive: 25.1 µM [inhibitor, single point]",–
Cc1c(O)ccc2c(CN3CCN(Cc4ccccc4)CC3)cc(=O)oc12,"inconclusive: 14.1 µM [inhibitor, partial curve]",–
COc1ccc(Cc2nc3ccc(C(=O)N4C[C@@H](C)O[C@@H](C)C4)cc3o2)cc1OC,–,inactive: 13%
COc1cc(OC)cc(C(=O)Oc2c(Sc3ccccc3)c(C)nn2C(C)(C)C)c1,–,inactive: -9.63%
Cc1ccc2c(c1)C1CN(C)CCC1N2C(=S)NC(=O)c1ccc(Br)cc1 (stereo not given),"inconclusive: 29.9 µM [inhibitor, partial curve, poor fit]",–
CC1=CC(C)(C)Nc2ccc(OC(=O)CCN3C(=O)c4ccccc4C3=O)cc21,active: 25.1 µM,–

SMILES,Potency,"activity change, negative = inhibition"
CNC(=S)NNC(=O)Cc1ccc(OC)cc1,"inconclusive: 15 µM [inhibitor, single point]",–
O=C(c1ccc(C(F)(F)F)cc1)N1CCC(=O)N(C(COCc2ccc(Cl)cc2)Cc2ccccc2)CC1 (stereo not given),"inconclusive: 39.8 µM [inhibitor, single point]",–
Cc1ccc2c(C)c(C(=O)N3CCN(c4ccncc4)CC3)oc2c1C,"inconclusive: 7.94 µM [inhibitor, partial curve, poor fit]",–
Cc1cc(C(=O)CN2C(=O)c3ccccc3C2=O)c(C)n1Cc1cccs1,"inconclusive: 7.94 µM [inhibitor, partial curve, poor fit]",–
CC(=O)Nc1ccc2nc(C3CC3)n(Cc3ccc(Cl)cc3)c(=O)c2c1,–,inactive: 26.1%
CC(NCc1ccc([N+](=O)[O-])cc1)C1COc2ccccc2O1 (stereo not given),"inconclusive: 11.2 µM [inhibitor, partial curve, poor fit]",–
Nc1ncc(-c2ccc(F)cc2)nc1N1CCN(CCO)CC1,–,inactive: -5.62%
CN1/C(=C\C=N\NC(=O)c2cccnc2)C(C)(C)c2ccccc21,"inconclusive: 10.6 µM [inhibitor, partial curve, poor fit]",–
Cc1cc(C)c(Cn2c3ccccc3c3cnn(CC(=O)NC4CCC(C)CC4)c(=O)c32)c(C)c1 (stereo not given),–,inactive: 9.39%
COc1ccc(/C=C/CN2CCC(C(=O)NC(c3ccc(F)cc3)c3ccc4ccccc4n3)CC2)cc1 (stereo not given),"inconclusive: 28.2 µM [inhibitor, single point]",–
O=C(Cn1c(=O)oc2cc(S(=O)(=O)N3CCCCC3)ccc21)Nc1cccc(Cl)c1,"inconclusive: 39.8 µM [inhibitor, single point]",–
CN(C)c1ccc(/C=N/Nc2cc(N3CCOCC3)nc(N3CCOCC3)n2)cc1,"inconclusive: 0.0084 µM [inhibitor, full curve, poor fit]",–
Clc1cccc(N2CCN(c3ncnc4c3nc3n4CCCCC3)CC2)c1,active: 17.8 µM,–
COc1ccc(NC(=S)N2CCN(c3ccc4c(c3)C3CCN(C(=O)OCc5ccccc5)C4C3)CC2)c(OC)c1 (stereo not given),–,inactive: 12.1%
COc1ccc(CCNc2ccc(C(CC(N)=O)NC(=O)Cc3cccc4ccccc34)cc2[N+](=O)[O-])cc1 (stereo not given),"inconclusive: 28.2 µM [inhibitor, single point]",–
O=C(Nc1ccc(F)cc1)c1sccc1SCc1cccc(C(F)(F)F)c1,"inconclusive: 28.2 µM [inhibitor, single point]",–
COc1ccccc1C(=O)NCCC(=O)N1CCN(c2ccc(C(F)(F)F)cn2)CC1,"inconclusive: 17.8 µM [inhibitor, partial curve, poor fit]",–
CCOC(=O)C(Cc1nc(OCc2ccccc2)cc(OCc2ccccc2)n1)=NO,"inconclusive: 29.9 µM [inhibitor, single point]",–
COc1ccccc1C1C=C(c2ccc(F)cc2)Nc2nc(-c3ccc(Cl)cc3)nn21 (stereo not given),"inconclusive: 28.2 µM [inhibitor, single point]",–
COC(=O)c1cccc(NC(=O)/C=C/c2ccc3c(c2)OCO3)c1,"inconclusive: 25.1 µM [inhibitor, single point]",–
CCN1CCC(O)(/C=C/c2ccc(C(C)C)cc2)C(C(=O)/C=C/c2ccc(C(C)C)cc2)C1 (stereo not given),"inconclusive: 39.8 µM [inhibitor, single point]",–
O=[N+]([O-])c1cccc(/C=N\N2CCN(c3ccc(Cl)cc3)CC2)c1,"inconclusive: 14.1 µM [inhibitor, partial curve, poor fit]",–

SMILES,Potency,"activity change, negative = inhibition"
O=C(NCCOc1ccccc1)N1[C@H]2CC[C@@H]1C=C(c1ccc(F)cc1OCc1ccccc1)C2,"inconclusive: 31.6 µM [inhibitor, single point]",–
COc1ccc(OC)c(N(C(=O)c2ccco2)C(C(=O)NC2CCCC2)c2ccc(N3CCOCC3)cc2)c1 (stereo not given),–,inactive: 5.46%
Cc1ccc(NC(=O)COC(=O)c2cccc3c2C(=O)c2ccccc2C3=O)c(C)c1,"inconclusive: 25.1 µM [inhibitor, partial curve]",–
O=C1CN(C(=O)C2CCCCC2)C(c2ccccc2)c2cc(F)ccc2N1 (stereo not given),–,inactive: 5.82%
CCOc1ccc(C(=O)C(C)=O)c(OCC)c1,–,inactive: 2.93%
Cc1nc(C(=O)NCC(=O)c2ccccc2)c(C(F)(F)F)o1,–,inactive: -17.6%
Cc1cc2nc(C3CCN(Cc4nnnn4Cc4ccccc4)CC3)[nH]c2cc1C,"inconclusive: 12.6 µM [inhibitor, partial curve, poor fit]",–
COc1ccc(-c2cc(C(F)(F)F)nc(S(=O)(=O)CCC(=O)N3CCOCC3)n2)cc1,"inconclusive: 39.8 µM [inhibitor, single point]",–
Cc1ccc(NC(=O)c2sc3nc(CCl)[nH]c(=O)c3c2C)c(C)c1,–,inactive: 53.3%
Cc1cccc(C(=O)Nc2ccccc2SCC(=O)Nc2ccc(C)c(Cl)c2)c1,"inconclusive: 22.4 µM [inhibitor, partial curve, poor fit]",–
Cc1ccc(NC(=O)Cn2cc(S(=O)(=O)N3CCN(c4ccccc4F)CC3)c3ccccc3c2=O)cc1F,–,inactive: -2.04%
CC(C)N1CSC(=S)N(Cc2ccccc2)C1,"inconclusive: 16.8 µM [inhibitor, single point]",–
COc1ccc(N2CCN(C(CNC(=O)c3ccc(C)cc3)c3ccc4c(c3)OCO4)CC2)cc1 (stereo not given),"inconclusive: 39.8 µM [inhibitor, partial curve, poor fit]",–
Cc1ccc2sc(N(CCCN(C)C)C(=O)c3ccc(S(=O)(=O)N(C)C4CCCCC4)cc3)nc2c1C,"inconclusive: 31.6 µM [inhibitor, single point]",–
CC(=O)OCCSc1c(-c2ccccc2)c2cc(Cl)ccc2[nH]c1=O,–,inactive: 3.64%
COc1ccccc1-c1cn[nH]c(=S)n1,"inconclusive: 1.58 µM [inhibitor, full curve, poor fit]",–
O=[N+]([O-])c1cc(-c2csc(NCCc3nc4cc(Cl)c(N5CCCCC5)cc4n3CCCO)n2)ccc1Cl,"inconclusive: 31.6 µM [inhibitor, single point]",–
CN=C1c2cc3cc(OC)ccc3n2CCN1Cc1ccccc1,"inconclusive: 14.1 µM [inhibitor, partial curve, poor fit]",–
Clc1ccc(CCNc2ncnc3nc[nH]c23)cc1,–,inactive: -4.35%
CCn1c(C)cc(C(=O)CN2C(=O)c3ccccc3S2(=O)=O)c1C,"inconclusive: 3.16 µM [inhibitor, full curve, poor fit]",–
C=CC(=O)NCC1OCCc2ccccc21 (stereo not given),"inconclusive: 3.16 µM [inhibitor, partial curve, poor fit]",–
